According to the supplement of paper PMC12217912:
This is one part of the list. The full chains were built here from the parent and the listed change. Inactive controls read about 0.05.

B1: TEV protease; numbered along this chain (parent)
chain: MGESLFKGPRDYNPISSSICHLTNESDGHTTSLYGIGFGPFIITNKHLFRRNNGTLVVQSLHGVFKVKDTTTLQQHLVDGRDMIIIRMPKDFPPFPQKLKFREPQREERICLVTTNFQTKSMSSMVSDTSCTFPSGDGIFWKHWIQTKDGQCGSPLVSTRDGFIVGIHSASNFTNTNNYFTSVPKNFMELLTNQEAQQWVSGWRLNADSVLWGGHKVFMVKPEEPFQPVKEATQL

Variants of: B1
Assay: raw area under fraction-flipped curve 0-4 h after induction (AUC4h, not background-subtracted), DNA-recorder readout of cleavage of the substrate (dimensionless); higher = more cleavage of the substrate by the protease variant
Conditions: temperature: 34 °C; time window: 0-4 h after rhamnose induction
Description: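 In vivo DNA recorder in E. coli TOP10(DE3) ΔrhaA at 34 °C. Each TEVp single-site mutant (parent TEVp 0) is paired with a single-site variant of the 7-mer TEVs (canonical ENLYFQ|S). The substrate sits between flexible linkers in a Bxb1-sfGFP-TEVs-SsrA fusion, so cleavage stabilises Bxb1 and speeds flipping of a recombination array, read by NGS. The value is the raw area under the fraction-flipped curve over 0-4 h after rhamnose induction (AUC4h), with ≥20 reads per time point. It is not background-subtracted; inactive controls average about 0.047.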
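Further: Bxb1 expression induced with 0.2% (w/v) L-rhamnose at OD600 near 0.5, cultures sampled hourly, flipped fraction per protease–substrate barcode pair counted by paired-end Illumina sequencing.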

| Variant | area with substrate ENAYFQS | area with substrate ENCYFQS | area with substrate ENDYFQS | area with substrate ENEYFQS | area with substrate ENFYFQS | area with substrate ENGYFQS | area with substrate ENHYFQS | area with substrate ENIYFQS | area with substrate ENKYFQS | area with substrate ENMYFQS | area with substrate ENNYFQS | area with substrate ENPYFQS | area with substrate ENQYFQS | area with substrate ENSYFQS | area with substrate ENTYFQS | area with substrate ENWYFQS | area with substrate ENYYFQS | area with substrate ENRYFQS | area with substrate ENVYFQS |
| --- | --- | --- | --- | --- | --- | --- | --- | --- | --- | --- | --- | --- | --- | --- | --- | --- | --- | --- | --- |
| MGESLFKGPRDYNVISSSICHLTNESDGHTTSLYGIGFGPFIITNKHLFRRNNGTLVVQSLHGVFKVKDTTTLQQHLVDGRDMIIIRMPKDFPPFPQKLKFREPQREERICLVTTNFQTKSMSSMVSDTSCTFPSGDGIFWKHWIQTKDGQCGSPLVSTRDGFIVGIHSASNFTNTNNYFTSVPKNFMELLTNQEAQQWVSGWRLNADSVLWGGHKVFMVKPEEPFQPVKEATQL [P14V] | 0.0606 | 0.0707 | 0.0578 | 0.0687 | 0.0674 | 0.067 | 0.0629 | 0.09 | 0.0672 | 0.0473 | 0.06 | 0.0527 | 0.0633 | 0.0653 | 0.0619 | 0.0159 | 0.0639 |  |  |
| MGESLFKGPRDYNQISSSICHLTNESDGHTTSLYGIGFGPFIITNKHLFRRNNGTLVVQSLHGVFKVKDTTTLQQHLVDGRDMIIIRMPKDFPPFPQKLKFREPQREERICLVTTNFQTKSMSSMVSDTSCTFPSGDGIFWKHWIQTKDGQCGSPLVSTRDGFIVGIHSASNFTNTNNYFTSVPKNFMELLTNQEAQQWVSGWRLNADSVLWGGHKVFMVKPEEPFQPVKEATQL [P14Q] | 0.0632 | 0.0681 | 0.0716 | 0.104 | 0.0636 | 0.0478 | 0.0558 |  | 0.0652 |  | 0.0544 | 0.0557 | 0.0632 | 0.056 | 0.0658 | 0.054 | 0.0556 | 0.0559 | 0.0895 |
| MGEFLFKGPRDYNPISSSICHLTNESDGHTTSLYGIGFGPFIITNKHLFRRNNGTLVVQSLHGVFKVKDTTTLQQHLVDGRDMIIIRMPKDFPPFPQKLKFREPQREERICLVTTNFQTKSMSSMVSDTSCTFPSGDGIFWKHWIQTKDGQCGSPLVSTRDGFIVGIHSASNFTNTNNYFTSVPKNFMELLTNQEAQQWVSGWRLNADSVLWGGHKVFMVKPEEPFQPVKEATQL [S4F] | 0.0663 | 0.0954 | 0.0542 |  | 0.0738 | 0.062 | 0.0567 | 0.166 |  |  | 0.0621 | 0.0554 | 0.0504 | 0.0755 | 0.0639 |  |  | 0.0524 | 0.0965 |
| MGESLFKGPRDYNPISSSICHLTNEMDGHTTSLYGIGFGPFIITNKHLFRRNNGTLVVQSLHGVFKVKDTTTLQQHLVDGRDMIIIRMPKDFPPFPQKLKFREPQREERICLVTTNFQTKSMSSMVSDTSCTFPSGDGIFWKHWIQTKDGQCGSPLVSTRDGFIVGIHSASNFTNTNNYFTSVPKNFMELLTNQEAQQWVSGWRLNADSVLWGGHKVFMVKPEEPFQPVKEATQL [S26M] | 0.0439 | 0.0564 |  | 0.062 | 0.0621 | 0.0485 | 0.0564 |  | 0.0514 | 0.0504 | 0.0555 | 0.0598 | 0.0629 | 0.0698 | 0.0589 | 0.0539 | 0.0541 | 0.0499 | 0.0682 |
| MGESLFNGPRDYNPISSSICHLTNESDGHTTSLYGIGFGPFIITNKHLFRRNNGTLVVQSLHGVFKVKDTTTLQQHLVDGRDMIIIRMPKDFPPFPQKLKFREPQREERICLVTTNFQTKSMSSMVSDTSCTFPSGDGIFWKHWIQTKDGQCGSPLVSTRDGFIVGIHSASNFTNTNNYFTSVPKNFMELLTNQEAQQWVSGWRLNADSVLWGGHKVFMVKPEEPFQPVKEATQL [K7N] | 0.0551 | 0.0886 | 0.0908 | 0.0747 |  | 0.0343 | 0.0451 |  |  |  |  |  |  | 0.0503 |  | 0.0475 |  |  | 0.0981 |
| MGESLFPGPRDYNPISSSICHLTNESDGHTTSLYGIGFGPFIITNKHLFRRNNGTLVVQSLHGVFKVKDTTTLQQHLVDGRDMIIIRMPKDFPPFPQKLKFREPQREERICLVTTNFQTKSMSSMVSDTSCTFPSGDGIFWKHWIQTKDGQCGSPLVSTRDGFIVGIHSASNFTNTNNYFTSVPKNFMELLTNQEAQQWVSGWRLNADSVLWGGHKVFMVKPEEPFQPVKEATQL [K7P] | 0.0489 |  |  | 0.0638 | 0.0614 | 0.0653 | 0.0988 | 0.0499 | 0.0617 |  | 0.0524 | 0.0683 | 0.0659 | 0.063 | 0.0586 |  |  |  | 0.078 |
| MGESLFKGPRDYNPISSSICHLTNESRGHTTSLYGIGFGPFIITNKHLFRRNNGTLVVQSLHGVFKVKDTTTLQQHLVDGRDMIIIRMPKDFPPFPQKLKFREPQREERICLVTTNFQTKSMSSMVSDTSCTFPSGDGIFWKHWIQTKDGQCGSPLVSTRDGFIVGIHSASNFTNTNNYFTSVPKNFMELLTNQEAQQWVSGWRLNADSVLWGGHKVFMVKPEEPFQPVKEATQL [D27R] | 0.0423 | 0.0674 | 0.0629 |  |  |  |  |  | 0.0583 |  | 0.0678 |  | 0.0484 | 0.0543 | 0.0667 | 0.0785 | 0.0443 | 0.0747 |  |
| MGESLFKGPRDYNPISSSICHLTNESYGHTTSLYGIGFGPFIITNKHLFRRNNGTLVVQSLHGVFKVKDTTTLQQHLVDGRDMIIIRMPKDFPPFPQKLKFREPQREERICLVTTNFQTKSMSSMVSDTSCTFPSGDGIFWKHWIQTKDGQCGSPLVSTRDGFIVGIHSASNFTNTNNYFTSVPKNFMELLTNQEAQQWVSGWRLNADSVLWGGHKVFMVKPEEPFQPVKEATQL [D27Y] | 0.0614 |  | 0.0604 | 0.0568 | 0.062 | 0.0499 |  | 0.0999 | 0.0598 |  | 0.0602 | 0.0619 | 0.0563 | 0.0542 | 0.0587 | 0.0413 | 0.048 | 0.0533 | 0.0779 |
| MGESLFKGPRDYNPISSSICHLTNESDGHATSLYGIGFGPFIITNKHLFRRNNGTLVVQSLHGVFKVKDTTTLQQHLVDGRDMIIIRMPKDFPPFPQKLKFREPQREERICLVTTNFQTKSMSSMVSDTSCTFPSGDGIFWKHWIQTKDGQCGSPLVSTRDGFIVGIHSASNFTNTNNYFTSVPKNFMELLTNQEAQQWVSGWRLNADSVLWGGHKVFMVKPEEPFQPVKEATQL [T30A] | 0.0607 |  | 0.0638 | 0.0546 | 0.063 | 0.0619 | 0.0838 |  | 0.0638 | 0.0932 | 0.0648 | 0.0561 | 0.0526 | 0.0602 |  | 0.0353 | 0.0535 | 0.0608 | 0.0772 |
